“And” between values parts separate entries of the source, which are not always exact repeats. Equal entries are not always repeated. Out of some 110,000 compounds screened, about 230 (0.21%) showed an effect of 50% or more. The list shows a part of the results.
biological target: DPAP1 (Plasmodium falciparum, UniProt Q8IIJ9); test: primary screen, percent inhibition; read by cleavage of a fluorogenic dipeptide substrate; higher = more effect of the substance; set-up: species or system P. falciparum D10 trophozoite lysates; single well
Sequence (Q8IIJ9 whole entry, looked up): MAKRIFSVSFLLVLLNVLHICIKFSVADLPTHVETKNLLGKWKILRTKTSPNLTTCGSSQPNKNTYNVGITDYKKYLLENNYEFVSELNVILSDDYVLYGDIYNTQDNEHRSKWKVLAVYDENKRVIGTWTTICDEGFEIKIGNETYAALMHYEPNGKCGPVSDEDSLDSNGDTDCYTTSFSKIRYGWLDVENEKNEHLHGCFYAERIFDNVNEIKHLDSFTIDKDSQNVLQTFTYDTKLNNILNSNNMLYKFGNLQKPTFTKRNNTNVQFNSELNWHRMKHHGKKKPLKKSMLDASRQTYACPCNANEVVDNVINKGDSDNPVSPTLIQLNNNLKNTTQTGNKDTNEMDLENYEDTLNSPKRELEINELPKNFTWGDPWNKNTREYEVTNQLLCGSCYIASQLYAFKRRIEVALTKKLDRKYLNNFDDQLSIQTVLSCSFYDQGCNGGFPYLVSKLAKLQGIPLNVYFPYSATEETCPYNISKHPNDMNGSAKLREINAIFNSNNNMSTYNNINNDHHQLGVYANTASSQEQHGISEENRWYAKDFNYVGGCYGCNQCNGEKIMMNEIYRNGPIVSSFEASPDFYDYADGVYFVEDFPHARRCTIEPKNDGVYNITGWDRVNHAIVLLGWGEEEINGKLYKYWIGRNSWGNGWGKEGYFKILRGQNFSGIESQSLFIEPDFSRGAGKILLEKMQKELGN
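Further: 30 min substrate incubation versus DMSO and 10 µM JCP410 controls.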

In order of falling “% Inhibition @ 10 uM” value:
1. COc1cccc(/C=C2\SC(Nc3ccc(C)c(Cl)c3)=NC2=O)c1OCC(=O)O  28.5%
2. COc1ccc(-c2nc(-c3ccc(O)cc3O)cs2)cc1OC  16.2%
3. O=C(O)/C(=C\c1ccco1)NC(=O)c1ccccc1Cl  14.1%
4. CCC(C)OC(=O)C1=C(C)NC(=O)NC1c1ccc(OC)cc1 (stereo not drawn)  10.4%
5. O=C1c2cccc3cccc(c23)C(=O)N1CC1CCN(S(=O)(=O)/C=C/c2ccccc2)CC1  7.54%
6. O=S(=O)(Nc1ccc(Br)cc1)c1ccc(C2CCCCC2)cc1  6.33%
7. CN(C)c1ccc(/C=C2/SC(=O)N(CNc3ccccc3F)C2=O)cc1  5.73%
8. CCOc1ccc(OCc2ccc(C(=O)NCC3CCCO3)o2)cc1 (stereo not drawn)  5.66%
9. CCOc1ccccc1/C=C1/NC(=S)NC1=O  5.31%
10. CC1=C(C(=O)N2CCCCC2)C(c2ccc(F)cc2)C2=C(O)CC(C)(C)CC2=N1 (stereo not drawn)  4.99%
11. COC(=O)c1ccc(C2CC(=O)NC3=C2C(=O)CC(c2ccc(F)cc2)C3)cc1 (stereo not drawn)  4.78%
12. COc1ccc(CCN(C)C(C)Cc2ccc(F)cc2)cc1OC (stereo not drawn)  4.68%
13. CCCC[C@H](NC(=O)C1(NC(=O)c2ccc(-c3csc(N4CCN(C)CC4)n3)cc2)CCCCC1)C(=O)c1nc2ccccc2o1  4.63%
14. O=C(OC1COC(c2ccc(Br)cc2)OC1)c1ccc(Br)cc1 (stereo not drawn)  4.54%
15. CN(Cc1ccccc1)c1sc(S(C)(=O)=O)nc1S(=O)(=O)c1ccc(Cl)cc1  4.33%
16. CC1CCN(c2nc3ccc(C(=O)NC(C)c4ccc5c(c4)OCCO5)cc3s2)CC1 (stereo not drawn)  4.22%
17. O=C(Nc1ccc2c(c1)OCO2)C(O)(c1ccccc1)c1ccccc1  4.03%
18. CCC(=O)NC(c1ccccc1OC)c1cc(Cl)c2cccnc2c1O (stereo not drawn)  3.98%
19. CCN(C(=O)c1ccnn1C)c1ccccc1  3.86%
20. O=C(NCc1ccco1)c1ccc(C(=O)NCc2ccco2)nc1  3.48%
21. Cn1c(CNCc2ccccc2)nc2ccccc21  3.32%
22. CC(C)(C)NC(=O)COc1ccc(CNC2C3CC4CC(C3)CC2C4)cc1 (stereo not drawn)  3.29%
23. O=C(O)Cc1c(O)nc2ccc(Br)cc2c1-c1ccccc1  3.12%
24. O=C(Nc1nc2nccc(-c3ccccc3)n2n1)c1ccco1  2.95%
25. COc1ccc(C(C#N)Nc2ccccc2)cc1 (stereo not drawn)  2.87%
26. Nc1ccc(-c2nc3cc(C(=O)O)ccc3[nH]2)cc1  2.73%
27. O=C(C1=NOC2C1CC1C3C=CC(C3)C12)c1ccccc1 (stereo not drawn)  2.65%
28. CCOC(=O)c1[nH]c(C)c(CN(CCc2ccc(OC)c(OC)c2)C(=O)CCCC(=O)O)c1C  2.57%
29. Cc1ccc(-n2nc(C)c3c(C(=O)NCCN4CCOCC4)cc(C)nc32)cc1  2.35%
30. COc1ccc(OC)c(C2C(C(=O)c3ccccc3)=C(O)C(=O)N2CC(C)O)c1 (stereo not drawn)  2.09%
31. COC(=O)c1ccc(-c2ccc(/C=C3/NC(=O)N(Cc4ccc(Br)cc4)C3=O)o2)c(C)c1  2.03%
32. CN(CC(=O)NCc1ccccc1Cl)S(=O)(=O)c1ccc2[nH]c3c(c2c1)CCCC3  1.97%
33. CCOc1ccc(C2=CC(c3ccc(Cl)cc3)n3ncnc3N2)cc1 (stereo not drawn)  1.73%
34. C#CCOc1ccc(C2C(C#N)=C(N)Oc3c2ccc2ccccc32)cc1OC (stereo not drawn)  1.63%
35. Cc1cc(C(=O)NC(C)C)on1  1.62%
36. CCc1c(CN2CCN(C(=O)c3ccco3)CC2)csc1C  1.5%
37. Cc1cc(C)c2c(-n3cccc3)c(C(=O)O)sc2n1  1.42%
38. CCOC(=O)C(=Cc1ccc(C)cc1)C(=O)OCC  1.42%
39. COc1cc(C)c(CN2CCN(c3ncccn3)CC2)cc1C  1.4%
40. CC1CCCN(CCCNC(=O)C2CCC(CNS(=O)(=O)c3cccc4nsnc34)CC2)C1 (stereo not drawn)  1.26%
41. CCCN1CCC(NC2C3CC4CC(C3)CC2C4)CC1 (stereo not drawn)  1.08%
42. O=C(CSc1nc2cccnc2[nH]1)NC1CCCCCC1  0.895%
43. CCN(CC)C(=O)C1CCCN(Cc2c(C)[nH]c3ccccc23)C1 (stereo not drawn)  0.847%
44. CCOC(=O)c1[nH]c(C)c(C(=O)N2CCN(c3ccccn3)CC2)c1C  0.655%
45. Cc1nnc(SC2CCN(S(=O)(=O)c3ccc4c(c3)OCCO4)CC2)s1  0.635%
46. O=S(=O)(c1ccc2cc(O)ccc2c1)N1CCOCC1  0.565%
47. CC(C)C(=O)Nc1nc(O)c2ncn(C3OC(CO)C(O)C3O)c2n1 (stereo not drawn)  0.561%
48. CCOc1ccc(-c2cc(C(=O)N3CCN(C(=O)c4cc(OC)c(OC)c(OC)c4)CC3)[nH]n2)cc1  0.49%
49. Cc1ccc2nc(N(CCCN(C)C)C(=O)c3ccc(S(=O)(=O)N(C)C)cc3)sc2c1  0.49%
50. Cc1nc2sc(C(=O)Nc3ccc(Br)cc3)c(N)c2c(C)c1C  0.35%
51. Fc1cccc(CN2CCN(Cc3ccc4c(c3)OCO4)CC2)c1  -0.197%
52. N#CCNC(=O)[C@H](Cc1ccccc1Cl)NC(=O)c1ccccc1  -0.214%
53. Cc1c2cnn(CC(=O)N3CCC(N4CCCCC4)CC3)c(=O)c2c(C)n1Cc1ccccc1  -0.447%
54. Cc1ccc(OCCCCCCN2CCCC2)cc1  -0.636%
55. CCOC(=O)N1CCC(NC(=O)CN2C(=O)CSc3ncccc32)CC1  -0.637%
56. c1ccc(COC(CN2CCCC2)CN2CCCC2)cc1  -0.711%
57. NC(=O)c1nc(-c2cc(Br)ccc2O)nc2c1nc(O)n2-c1cccc(Cl)c1  -0.72%
58. O=C(CSc1nc(-c2ccc(Cl)cc2)c[nH]1)NC1CCCCC1  -0.999%
59. COc1ccc(N2CCN(Cc3c(C)n(C)n(-c4ccccc4)c3=O)CC2)cc1  -1.21%
60. CCCCCNc1nc(C(C)C)c2c(c1C#N)CC(C)(C)OC2  -1.33%
61. CC(C)(C)c1ccc(SC2=CS(=O)(=O)c3ccccc32)cc1  -1.63%
62. COc1ccccc1-c1c(C)nn2c(SCC(=O)NCc3ccc4c(c3)OCO4)cc(C)nc12  -1.7%
63. Nc1nonc1-n1nnc(C(=O)O)c1-c1cccs1  -1.82%
64. COc1ccc(NC(=O)CCC(=O)c2ccc(Cl)cc2)cc1  -1.84%
65. O=S(=O)(c1ccccc1)C1c2ccccc2Oc2ccc(F)cc21 (stereo not drawn)  -1.92%
66. CCc1nn(CC(=O)NCCOC)c(=O)c2cc3occc3n12  -2%
67. CCN(CC)CCNC(=O)CCc1c(C)nc2nc(-c3ccc(Cl)cc3Cl)nn2c1C  -2.25%
68. O=C(NCCOC(=O)c1ccc(F)cc1)c1ccc(F)cc1  -2.26%
69. CC1CN(S(=O)(=O)c2cccc(C(=O)O)c2)CC(C)O1 (stereo not drawn)  -2.39%
70. Cc1ccc(S(=O)(=O)c2cnc(S)nc2O)cc1  -2.41%
71. CN1CCCc2c1nc1ccccc1c2O  -2.42%
72. CCCCCCNS(=O)(=O)c1ccc(NC(C)=O)cc1  -2.64%
73. Cc1ccc(NC=C2C(=O)CC(c3ccccc3)CC2=O)cc1 (stereo not drawn)  -2.8%
74. COc1cccc(CN2CNc3c(c(=O)n(C)c(=O)n3C)C2)c1  -2.88%
75. CCOc1cc(C2C3=C(CCCC3=O)OC3=C2C(=O)CCC3)c(Br)cc1O  -2.98%
76. COc1cc(C2c3c(-c4ccccc4O)n[nH]c3C(=O)N2CCc2ccccc2)ccc1O (stereo not drawn)  -3.12%
77. Cc1nn(CC(=O)NCC(C)c2ccccc2)c(=O)c2c1sc1ccccc12 (stereo not drawn)  -3.12%
78. Cc1cccc(CN2CCN(c3ccc([N+](=O)[O-])cc3)CC2)c1  -3.71%
79. COc1ccc(N2CCN(Cc3ccc(F)c(F)c3)CC2)cc1  -3.72%
80. O=C(c1ccc(F)cc1)C(c1ccccc1)N1CCCC1 (stereo not drawn)  -3.74%
81. CCCN(CCC)S(=O)(=O)c1ccc(-c2cc(C(F)(F)F)no2)s1  -3.82%
82. CCN(CC)c1ccc([N+](=O)[O-])c2cccnc12  -3.94%
83. O=C1c2ccccc2-c2nc3ncccc3nc21  -4.01%
84. CN(Cc1ccccc1)C(=O)c1cc2c(s1)-c1ccccc1SC2  -4.04%
85. O=C(c1ccccc1-c1nc2ccccc2[nH]1)N1CCCCC1  -4.21%
86. CSc1nc(N)c(C#N)c(-c2ccco2)c1C#N  -4.23%
87. CC12CCC3C(CC=C4CC(O)CCC43CO)C1CCC2O (stereo not drawn)  -4.35%
88. Brc1ccc(-c2cnnc(N3CCCC3)n2)cc1  -4.98%
89. O=C(/C=C\c1ccccc1)Nc1ccc(N2CCOCC2)cc1  -5.11%
90. Nc1ncnc2c1ncn2CCN1CCCCC1  -5.2%
91. CCOC(=O)/C(C#N)=C/c1c(C)cc(C)cc1C  -5.36%
92. O=C(O)c1ccccc1-c1ccccc1C(=O)Nc1nc(-c2ccccc2)cs1  -5.63%
93. O=C(NCc1ccccc1)C(=O)Nc1ccc(Cl)c(Cl)c1  -5.9%
94. O=[N+]([O-])c1ccc(OCCCCCCN2CCCCC2)cc1  -5.9%
95. CC(C)(C)c1[nH]nc2c1C(c1cccnc1)C(C#N)=C(N)O2 (stereo not drawn)  -5.92%
96. COc1ccc2c(c1)N(C)/C(=C1/S/C(=N/c3ccc(O)cc3)N(C)C1=O)S2  -6.59%
97. CCOC(=O)c1[nH]c2ccccc2c1CN(CC)CC  -6.95%
98. N#CCNC(=O)C(CCSc1ccccc1Cl)NC(=O)c1ccccc1 (stereo not drawn)  -7.21%
99. Cc1ccc(C(c2ccc(C)o2)c2ccccc2Br)o1  -7.34%
100. Cc1cccc(N2CCN(Cc3coc4ccccc4c3=O)CC2)c1C  -8.13%
101. COc1cccc(CN2CCN(C(=O)c3cccc(F)c3)CC2)c1OC  -8.42%

In the case of `Clc1ccc(-c2nc3ccncc3[nH]2)cc1`, the “% Inhibition @ 10 uM” value is reported as 4.26% and 5%.

Reference: article PMC6919601, “Identification of Plasmodium dipeptidyl aminopeptidase allosteric inhibitors by high throughput screening” (PLoS ONE, 2019)
